Test results as given in paper PMC7819943, “Rice protein-binding microarrays: a tool to detect cis-acting elements near promoter regions in rice”.
Some of the results follow.

What follows are sequences tested against T1, OsWOX13 (Oryza sativa, UniProt Q5QMM3 1-267) (assay: protein-binding microarray (RPBM); PBS, 2% BSA, 51.3 ng/ul salmon testes DNA, 50 uM zinc acetate, 200 nM TF, 25 C, 1 h; high values mean tight binding). Settings: protein: recombinant; tags: N-terminal polyhistidine and DsRed monomer fusion (pET32a); label: CyDye5-dUTP incorporated in the synthesized complementary strand; 3' TTTTT single-stranded linker to array surface; dsDNA, one strand shown.
T1 sequence: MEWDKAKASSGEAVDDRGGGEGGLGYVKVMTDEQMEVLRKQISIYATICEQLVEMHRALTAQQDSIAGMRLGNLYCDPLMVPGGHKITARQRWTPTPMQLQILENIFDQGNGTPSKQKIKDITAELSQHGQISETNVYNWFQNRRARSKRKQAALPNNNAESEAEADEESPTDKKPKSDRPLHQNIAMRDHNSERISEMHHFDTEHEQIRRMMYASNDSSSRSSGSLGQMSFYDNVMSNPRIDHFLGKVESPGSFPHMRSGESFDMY
How it was run: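 In PBS with 2% BSA, salmon testes DNA and 50 µM zinc acetate, 200 nM protein was incubated on a custom Agilent array at 25 °C for 1 h and then washed off. The array had been made double-stranded by primer extension with Cy5-dUTP and blocked with 2% BSA. The proteins were transcription factors fused N-terminally to polyhistidine and DsRed, expressed in E. coli BL21-CodonPlus and purified on Ni–NTA. The binding signal is per-feature fluorescence intensity (arbitrary units) from an Axon 4000B scanner.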
“CTTACATAATTATACAACACAATATCAAAACAATTTTCTACGGAGTCACCTAGTGCAG” was tested, and the binding signal was 7400 fluorescence intensity (a.u.). For “CATAATTAGTGCTAGCTAAGTCAATCCTGCAAGCCTATATCGGAGTCACCTAGTGCAG”, the binding signal was 9180 fluorescence intensity (a.u.). For “GGCGTATTTCCCAATCATTGTGCGGTCCAAAACCATCGCCCGGAGTCACCTAGTGCAG”, the binding signal was 10000 fluorescence intensity (a.u.). With “CAGTTTATTGGTTTATATGATTTATAAGCTGGTGATTTAACGGAGTCACCTAGTGCAG” the binding signal was 9160 fluorescence intensity (a.u.). With “AAAGTAGTTAATTACTGCTAATTACATGGATTAGTTGGGTCGGAGTCACCTAGTGCAG” the binding signal was 33500 fluorescence intensity (a.u.). In the case of “CTAAACTTATAGGAGTATTAATTAGCATCAGCAAGTTACTCGGAGTCACCTAGTGCAG”, the binding signal is reported as 5330 fluorescence intensity (a.u.). With “TCTCAATCAATCTCACCATCCGACGGTCGCAACGAGCCAACGGAGTCACCTAGTGCAG” the binding signal was 18800 fluorescence intensity (a.u.). For “GCAGGATTGTTAACTAAACTCGGTCAAACCCGATAAACTGCGGAGTCACCTAGTGCAG”, the binding signal was 10900 fluorescence intensity (a.u.). “CTATAATTATATTTTAAATTACATTTAACGTTTTCTACAGCGGAGTCACCTAGTGCAG” was tested, and the binding signal was 44400 fluorescence intensity (a.u.). In the case of “ACACAGGATTCTGATAGTAATTGAAGTATAAAACAGAGGACGGAGTCACCTAGTGCAG”, the binding signal is reported as 5060 fluorescence intensity (a.u.). “AATTTACAAATGTAATTTTAGTTATATAGGACTGTAAGTTCGGAGTCACCTAGTGCAG” was tested, and the binding signal was 3920 fluorescence intensity (a.u.). In the case of “ATCTTCGCAAAAGCTTTGCCACTGTGCCTCCATGGAACTGCGGAGTCACCTAGTGCAG”, the binding signal is reported as 7040 fluorescence intensity (a.u.). In the case of “GAAACTAATGTATAACAGGAGCAACATGTTCGTAGTACAGCGGAGTCACCTAGTGCAG”, the binding signal is reported as 3410 fluorescence intensity (a.u.). In the case of “ATCCAATAAATTATTACAAGCCTGAATGACACAGCAAGAACGGAGTCACCTAGTGCAG”, the binding signal is reported as 12600 fluorescence intensity (a.u.). With “CTTAAAACACCAGTAATTGACTAGTAAACCCCTCATTCACCGGAGTCACCTAGTGCAG” the binding signal was 30900 fluorescence intensity (a.u.). “GCAGTAACAAGCTTTTAATTTTGGATCAAGAGTTTGGATTCGGAGTCACCTAGTGCAG” was tested, and the binding signal was 4520 fluorescence intensity (a.u.). For “CATAATTACTGATTAATTTACTTCGAGGCAGAAGATACCACGGAGTCACCTAGTGCAG”, the binding signal was 37300 fluorescence intensity (a.u.). In the case of “CCATCAATCTTTAATGTTTGTCTGTTAAGCAGGTTTGTTCCGGAGTCACCTAGTGCAG”, the binding signal is reported as 7310 fluorescence intensity (a.u.). In the case of “TTTGACTGAACTTCATCTCCAGGAGGGGTGGAGCTGGAGCCGGAGTCACCTAGTGCAG”, the binding signal is reported as 20600 fluorescence intensity (a.u.). For “AGTCGAAATTGAGGGACCTTAATAAGTTTTAAACTTGATCCGGAGTCACCTAGTGCAG”, the binding signal was 4700 fluorescence intensity (a.u.). With “GACATAATGACATGAAATGTAACTGAAAGCATTTAGCACTCGGAGTCACCTAGTGCAG” the binding signal was 9660 fluorescence intensity (a.u.). In the case of “TTATAATAATACCGAATTGATGATCTGACTGCGAATGCATCGGAGTCACCTAGTGCAG”, the binding signal is reported as 7290 fluorescence intensity (a.u.). In the case of “AACAAATTACGGATTCCGTCAGGAAACTGCGAGACGAATTCGGAGTCACCTAGTGCAG”, the binding signal is reported as 4580 fluorescence intensity (a.u.). With “TTTCAAATTGAATGTTTGGATTTGAAACATATCAAAAGTTCGGAGTCACCTAGTGCAG” the binding signal was 17100 fluorescence intensity (a.u.). “ATTAATAGAATACTCATATCAACAGGTTGCAACTTCTTTTCGGAGTCACCTAGTGCAG” was tested, and the binding signal was 6320 fluorescence intensity (a.u.). With “AACACTAATTTAGTATCGAGTTTAACACAGTACTCCCTCCCGGAGTCACCTAGTGCAG” the binding signal was 19100 fluorescence intensity (a.u.). In the case of “GATCAATGATGCGCCATTGACAAGATCCCTGCTAAGGGAGCGGAGTCACCTAGTGCAG”, the binding signal is reported as 3720 fluorescence intensity (a.u.). For “TGTTAGATTTGTTCATCCATTATATTTTCTTGAAAGGAAACGGAGTCACCTAGTGCAG”, the binding signal was 6360 fluorescence intensity (a.u.). In the case of “ACAGATTGGACGGCCGCCCGAGCTATACTATTACCGTTTTCGGAGTCACCTAGTGCAG”, the binding signal is reported as 20800 fluorescence intensity (a.u.). For “GGCTTAATTGTTGATTAAACATCAGGCTCTTCTTGCATATCGGAGTCACCTAGTGCAG”, the binding signal was 54900 fluorescence intensity (a.u.). “GGATAATGATTTGACATTGATTGCGGTCTCGTTATTTTCTCGGAGTCACCTAGTGCAG” was tested, and the binding signal was 59500 fluorescence intensity (a.u.). For “CCTAGACAGATTTTGTACCACATGCCTTGTATAGGCCTCCCGGAGTCACCTAGTGCAG”, the binding signal was 18700 fluorescence intensity (a.u.). “AGTTGTAAATCAAATTAAGTTTACTTTGTGTCCCTTTTCTCGGAGTCACCTAGTGCAG” was tested, and the binding signal was 4170 fluorescence intensity (a.u.). In the case of “ACGGCCCTGATTACGCCCATCCCGGAACATTTTAGCGGAGCGGAGTCACCTAGTGCAG”, the binding signal is reported as 5600 fluorescence intensity (a.u.). With “ACATAGACTAATAACAAAACAAATTATAGAATCTGTAAGTCGGAGTCACCTAGTGCAG” the binding signal was 4180 fluorescence intensity (a.u.). “GTAAATTATATATTTATATAAATTTACATTGTAGTTACACCGGAGTCACCTAGTGCAG” was tested, and the binding signal was 35900 fluorescence intensity (a.u.). In the case of “TTATTAATTTAAATATGTTAGGATGTTGGATATAAGCGGTCGGAGTCACCTAGTGCAG”, the binding signal is reported as 20000 fluorescence intensity (a.u.). For “AACAATTGATTAAACAGGATTCAATAACAAATAAACAGGACGGAGTCACCTAGTGCAG”, the binding signal was 43000 fluorescence intensity (a.u.). “GACAATTATGTAAAATCATTAGCACACCAAAATTTAAAGGCGGAGTCACCTAGTGCAG” was tested, and the binding signal was 7500 fluorescence intensity (a.u.). “ATTTGATTGTTTAGCTATAGTCTACTATTTTAGGGTTTGGCGGAGTCACCTAGTGCAG” was tested, and the binding signal was 48000 fluorescence intensity (a.u.). In the case of “ATCACAGATTGTCTTGAATGATCCTGTTGAGAAGTATATGCGGAGTCACCTAGTGCAG”, the binding signal is reported as 7240 fluorescence intensity (a.u.). For “TATGATGGTCAATTTGCAGGTGGGACTGAATATTTCTTGTCGGAGTCACCTAGTGCAG”, the binding signal was 13100 fluorescence intensity (a.u.). In the case of “ATAATAATGGTTTAAACATACTTACCCATCCTCAGGCCAGCGGAGTCACCTAGTGCAG”, the binding signal is reported as 3670 fluorescence intensity (a.u.). With “GTAGGAACACTAATTAATCACTCATTGATATGTGTAATCCCGGAGTCACCTAGTGCAG” the binding signal was 14700 fluorescence intensity (a.u.). With “CCACTACAACTGATTACTCTCTCTATCCCAGAATATAGCACGGAGTCACCTAGTGCAG” the binding signal was 3510 fluorescence intensity (a.u.). In the case of “AGATAGATAGATAGATAGATAGATAGATAGATAGATAGATCGGAGTCACCTAGTGCAG”, the binding signal is reported as 55700 fluorescence intensity (a.u.). “TTCACATGACAAATTTATAAATGGCGTTATCAAATTTACCCGGAGTCACCTAGTGCAG” was tested, and the binding signal was 14500 fluorescence intensity (a.u.). With “TATACAATTATTTAAACAAAATTACCACTTTGCTACAACTCGGAGTCACCTAGTGCAG” the binding signal was 8450 fluorescence intensity (a.u.). With “GGTTCATTGAGTTAACGAGCTAATCAAGCTCAACGAGCCACGGAGTCACCTAGTGCAG” the binding signal was 9140 fluorescence intensity (a.u.). In the case of “GAAAATTTCTAGAGTTTAATTAGTGCAGAGTGCAGAAGGTCGGAGTCACCTAGTGCAG”, the binding signal is reported as 7530 fluorescence intensity (a.u.). For “GTGTCAGTAATTTGGTGCGGAATAAATCCACCAATCAGCTCGGAGTCACCTAGTGCAG”, the binding signal was 7210 fluorescence intensity (a.u.). For “AGAATATTCATAATTTATATTTAAATATTATCTTACATGACGGAGTCACCTAGTGCAG”, the binding signal was 3300 fluorescence intensity (a.u.). In the case of “GGTCGACTTACGCCAATCACCAAGTCGCGCGTACGCACGGCGGAGTCACCTAGTGCAG”, the binding signal is reported as 5000 fluorescence intensity (a.u.). “TTCCCAAACAGACATGATTTAGCGTGAGACGTCGTTGCTACGGAGTCACCTAGTGCAG” was tested, and the binding signal was 10400 fluorescence intensity (a.u.).
